Source: PMC4336329 (PLoS ONE, 2015)
About 2,200 (0.71%) of roughly 310,000 compounds showed an effect of 50% or more. Effects have a minus sign here. This is one part of the list.

These compounds were tested against human ether-à-go-go-related gene (hERG) potassium channel (human, UniProt Q12809) (assay: primary screen, population patch clamp on CHO cells stably expressing hERG).
human ether-à-go-go-related gene (hERG) potassium channel, sequence (Q12809 whole entry, looked up): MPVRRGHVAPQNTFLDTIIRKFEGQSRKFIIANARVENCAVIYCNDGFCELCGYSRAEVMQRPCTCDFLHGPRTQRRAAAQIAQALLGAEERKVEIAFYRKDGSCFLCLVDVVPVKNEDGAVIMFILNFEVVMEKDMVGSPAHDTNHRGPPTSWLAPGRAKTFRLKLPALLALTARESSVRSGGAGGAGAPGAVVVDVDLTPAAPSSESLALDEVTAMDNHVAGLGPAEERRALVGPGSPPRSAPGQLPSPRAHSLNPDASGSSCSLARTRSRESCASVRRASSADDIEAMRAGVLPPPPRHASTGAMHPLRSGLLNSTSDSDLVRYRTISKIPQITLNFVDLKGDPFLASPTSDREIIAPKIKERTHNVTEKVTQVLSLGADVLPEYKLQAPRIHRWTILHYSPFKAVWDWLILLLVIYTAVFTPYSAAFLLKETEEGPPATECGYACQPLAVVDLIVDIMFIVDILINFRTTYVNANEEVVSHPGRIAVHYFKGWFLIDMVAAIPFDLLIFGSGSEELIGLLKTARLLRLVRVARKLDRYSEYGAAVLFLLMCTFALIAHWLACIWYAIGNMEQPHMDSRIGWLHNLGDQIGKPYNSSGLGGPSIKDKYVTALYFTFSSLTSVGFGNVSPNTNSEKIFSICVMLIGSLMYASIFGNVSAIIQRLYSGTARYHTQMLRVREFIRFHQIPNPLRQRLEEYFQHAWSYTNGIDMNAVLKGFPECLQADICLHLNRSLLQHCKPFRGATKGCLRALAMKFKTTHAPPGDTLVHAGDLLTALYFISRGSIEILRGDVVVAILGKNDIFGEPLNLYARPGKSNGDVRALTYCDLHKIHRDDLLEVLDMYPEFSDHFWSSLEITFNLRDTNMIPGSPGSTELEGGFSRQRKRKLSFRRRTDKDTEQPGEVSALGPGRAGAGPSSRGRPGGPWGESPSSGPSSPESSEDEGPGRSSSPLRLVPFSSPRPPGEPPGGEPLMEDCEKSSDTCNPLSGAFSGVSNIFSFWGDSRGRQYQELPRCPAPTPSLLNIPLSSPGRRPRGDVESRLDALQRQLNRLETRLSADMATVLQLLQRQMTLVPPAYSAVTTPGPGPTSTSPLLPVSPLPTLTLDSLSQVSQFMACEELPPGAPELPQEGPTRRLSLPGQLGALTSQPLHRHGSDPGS

Row | Structure (SMILES) | hERG current change (%, negative = inhibition) at 1uM [%]
1 | COc1ccc(S(=O)(=O)N2CCCCCC2)cc1N(C)S(=O)(=O)c1ccccc1 | 2.28
2 | Cc1cc(C)cc(NC(=S)/N=C(\N)Nc2nc(C)c3ccccc3n2)c1 | 13.4
3 | Cc1ccc(CN2C(=O)CSc3ccc(C(=O)NCCN4CCOCC4)cc32)cc1 | 7.08
4 | Cn1nc(NC(=O)C2CCC2C(=O)O)c2c(F)cccc21 (centres unmarked) | 3.69
5 | CC(C)C(NS(=O)(=O)c1cccs1)C(=O)N(C)Cc1ccccc1 (centres unmarked) | 2.73
6 | CCCCCN(C(=O)CCC(=O)OCC(=O)Nc1ccc(C)cc1F)c1c(N)n(CCCC)c(=O)[nH]c1=O | 10.5
7 | CC1(C)CC(=O)C=C(/C=C/c2ccccc2)C1 | 4.32
8 | Brc1ccc(CSc2ccc(-c3ccco3)nn2)cc1 | 18.1
9 | CN1C(=O)/C(=C\c2ccc(N3CCCCC3)o2)C(=O)NC1=S | 13
10 | CCOc1cc(/C=N/NC(=O)CCCC(=O)NC2CCCCC2)ccc1O | 10.3
11 | COC(=O)c1sc2nc(-c3ccccc3)c3c(c2c1N)CCCC3 | 4.42
12 | Cc1c(Cl)cccc1NC(=O)CSc1nc(=O)n(CCCN2CCOCC2)c2c1CCC2 | -3.4
13 | COc1ccc(CCNc2ccc(C(=O)O)cc2[N+](=O)[O-])cc1OC | 23.9
14 | Cc1onc(C(=O)N2CCOCC2)c1[N+](=O)[O-] | 18.4
15 | O=C1CCCC2=C1C(c1cn(-c3ccccc3)nc1-c1cccs1)c1c([nH]c(=O)[nH]c1=O)N2 (centres unmarked) | 11.9
16 | Cc1nn(-c2ccccc2)c(C)c1NC(=O)COC(=O)c1cc([N+](=O)[O-])ccc1NCCO | 9.4
17 | O=C1C2C3C=CC(C4CC34)C2C(=O)N1/N=C/c1ccc([N+](=O)[O-])s1 (centres unmarked) | 4.77
18 | COc1ccccc1NC(=O)Nc1nc(CC(=O)NC2CCCC2)cs1 | -2.51
19 | Cc1c(O)ccc2c(=O)c(-c3nncn3-c3ccccc3)coc12 | 16.7
20 | O=C(Cc1ccc(S(=O)(=O)N2CCCCC2)s1)Nc1ccc(F)c(F)c1 | 8.33
21 | NC1=NC(=O)/C(=C/c2cn(Cc3ccccc3)c3ccccc23)S1 | 0.743
22 | CCC(=O)Nc1cccc(C2=NOC3(C2)C[C@@H](C(N)=O)N(C(=O)COc2ccc(Cl)cc2)C3)c1 (some centres unmarked) | 13.1

Row | Structure (SMILES) | hERG current change (%, negative = inhibition) at 1uM [%]
23 | COc1ccc(-c2nc(CSCC(=O)NC3CCCc4ccccc43)c(C)o2)cc1OC (centres unmarked) | 10.1
24 | COc1ccc(CN2CCOCCOCCN(Cc3ccc(OC)cc3)CCOCCOCC2)cc1 | -84.1
25 | COC(=O)[C@H](CCSC)NC(=O)Nc1ccc(C(C)=O)cc1 | 11.9
26 | Cc1ccc(S(=O)(=O)NCC(=O)OCC(=O)c2c(N)n(C)c(=O)n(C)c2=O)cc1 | 20.1
27 | COC(=O)c1sc(NC(=O)COc2ccc(C)cc2)nc1C | 11.3
28 | CCCCN(C)CCCNC(=O)c1ccc2c(c1)N(CC)C(=O)c1ccccc1S2=O (centres unmarked) | 21
29 | CN1CCC(Oc2ccccc2Sc2ccc(C(F)(F)F)cc2)CC1.O=C(O)C(=O)O | -8.32
30 | CC(=O)c1cc2c(cc1NC(=O)c1ccc(C)cc1)OCCO2 | 7.48
31 | COC(=O)CSc1nc(N)c(C#N)c(-c2ccco2)c1C#N | 9.92
32 | CC(C)CN1C(=O)C(=O)N(CC(=O)NC2CCCc3ccccc32)C1=O (centres unmarked) | 5.68
33 | Cn1c(Cn2nnc3ccccc32)nnc1SCC(=O)Nc1nccs1 | 10.6
34 | Cc1cc(=O)[nH]c(N2CCN(Cc3ccccc3)CC2)n1 | 2.91
35 | COc1ccc(NC(=S)c2ccncc2)cc1 | 17
36 | CC(C)(C)C1CCC(C(=O)Nc2ccccc2N2CCOCC2)CC1 (centres unmarked) | 12
37 | NS(=O)(=O)c1ccc(CCNC(=O)C2CCCCC2)cc1 | 16.6
38 | C=CCN1CCN(C(=O)CCc2ccccc2)CC1 | 15.5
39 | CC(C)NC(=O)NC(=O)COc1ncnc2sccc12 | 5.46
40 | CSc1nsc(/C=C/Nc2ccc(C)cc2)c1C#N | 10.5
41 | COc1ccc(C(=O)NCc2ccc3c(c2)OCO3)cc1S(=O)(=O)N(C)Cc1ccccc1 | 6.12
42 | CCN(CC)C(=O)c1sc2c(c1C)c(=O)n(-c1ccc(C)c(C)c1)c(=O)n2CC(=O)NCC1CCCO1 (centres unmarked) | -4.87
43 | CCCn1c(CCC(=O)O)nc2cc(S(N)(=O)=O)ccc21 | 12.3
44 | CCN(CC(=O)Nc1c(F)cccc1F)C(=O)c1cccc(S(=O)(=O)N2CCCCCC2)c1 | 5.71

Row | Structure (SMILES) | hERG current change (%, negative = inhibition) at 1uM [%]
45 | CCn1ncc([N+](=O)[O-])c1C(=O)Nc1ccc(C(=O)N2CCCCC2)cc1 | 1.34
46 | Cc1ccc(SCc2nc(-c3ccncc3)no2)cc1 | 3.02
47 | CCc1ccc(-c2nc(SCC(=O)N(CCOC)c3c(N)n(Cc4ccccc4)c(=O)[nH]c3=O)n[nH]2)cc1 | 10.9
48 | Cc1cccc(C(=O)OCC(=O)c2c(N)n(CC(C)C)c(=O)n(C)c2=O)c1O | -8.55
49 | C=CCCC(=O)Nc1nc(C)c(-c2csc(Nc3cc(OC)ccc3OC)n2)s1 | -2.25
50 | COc1ccc(C(C(=O)NC2CCCC2)N(C(=O)c2ccoc2C)c2ccccc2)cc1 (centres unmarked) | 16.4
51 | O=C(CCC(=O)N1CCN(c2ccc(F)cc2)CC1)c1ccc(Cl)cc1 | 0.0178
52 | O=C(NCCc1ccc2c(c1)OCO2)C1CCN(S(=O)(=O)c2ccc(Cl)cc2)CC1 | 0.439
53 | COCCn1c(C)cc(C(=O)CSc2ccc(NC(C)=O)cc2)c1C | 15.4
54 | CN(C)c1ccc(/C=C/C(=O)c2cccc(Br)c2)cc1 | 2.06
55 | N#Cc1c(-c2ccccc2)ccnc1N1CCOCC1 | 11.1
56 | CCCCNC(=O)CSc1nc2c(sc(=S)n2-c2cc(Cl)ccc2OC)c(=O)[nH]1 | 14.8
57 | COc1ccc(N2CCN(C(=O)CSc3nnc4n3C(C)(C)Cc3ccccc3-4)CC2)cc1 | -0.619
58 | CCN(CC)S(=O)(=O)c1ccc(S(=O)(=O)Nc2cc3c(cc2C(C)=O)OCO3)cc1 | 7.6
59 | CC(=O)c1ccc(OCC(O)CN2CCN(CCO)CC2)cc1.Cl (centres unmarked) | 12.3
60 | Cc1ccc(/C=N/n2c(-c3ccccn3)n[nH]c2=S)o1 | 13.5
61 | CC(C)(O)C#Cc1ccc([C@@H]2C[C@H]3CN(c4ccccc4)C(=O)[C@]34CCCN24)s1 | 11
62 | CCCc1cc(=O)[nH]c(SCC(=O)c2c(N)n(C3CC3)c(=O)[nH]c2=O)n1 | 3.05
63 | COc1cccc(OC)c1OCCCc1c(C)n[nH]c1C | 2.68
64 | CC(C)C(NC(=O)C12CC3CC(CC(C3)C1)C2)C(=O)N/N=C/C1=C(N2CCOCC2)C(=C\c2cccc([N+](=O)[O-])c2)/CC1 (centres unmarked) | 3.54
65 | Cl.c1ccc(-c2csc(=Nc3cccnc3)n2CC2CCCO2)cc1 (centres unmarked) | 6.32
66 | CN(C)c1ccnc(Oc2ccc(C(C)(C)C)cc2)c1C#N | -6.53

Row | Structure (SMILES) | hERG current change (%, negative = inhibition) at 1uM [%]
67 | CCN1C(=O)N[C@@H](CCc2ccccc2)C(C(C)=O)=C1C | 14.7
68 | O=C(N/N=C/c1cccs1)c1ccco1 | 13.3
69 | Cc1cc(C(=O)Nc2nnc(-c3ccccc3)s2)no1 | 11.4
70 | c1ccc(CN2CCN(c3nc(-c4ccccn4)nc4ccccc34)CC2)cc1 | 8.49
71 | Cc1nnc(SCC(=O)NC2CCCC2)s1 | 6.18
72 | Cn1c(O)c(C(=Nc2ccc(F)cc2)c2ccccc2Cl)c(=O)n(C)c1=O | 14.9
73 | CCc1nnc(NC(=O)CC23CC4CC(CC(C4)C2)C3)s1 | 13.1
74 | CC(C)CC[n+]1ccn(C2=C([O-])c3ccccc3C(=O)/C2=N\S(=O)(=O)c2ccccc2)c1 | 13.3
75 | O=[N+]([O-])c1ccc(Cl)c(S(=O)(=O)Nc2cccc(-c3ccc(N4CCOCC4)nn3)c2)c1 | -4.25
76 | O=C(COC(=O)c1nc(Cl)c(Cl)c(Cl)c1Cl)c1ccc[nH]1 | 0.96
77 | Cc1c(C(=O)Nc2ccc(S(=O)(=O)Nc3ncccn3)cc2)oc2ccc(F)cc12 | 15.1
78 | CC(=O)Nc1ccc(NC2=CC(=O)CC(C)(C)C2)cc1 | 7.82
79 | CC(C)Nc1nc(-c2cccnc2)nc(-c2ccc(Cl)cc2)c1C#N | 5.3
80 | Cc1cccc(N2CCN(C(=O)CCn3c(=S)[nH]c4cc5c(cc4c3=O)OCO5)CC2C)c1 (centres unmarked) | 5.83
81 | O=C(/C=C/c1ccc(Cl)cc1)N1CCN(c2ccc(Cl)cc2[N+](=O)[O-])CC1 | -81.4
82 | CC(C)(Oc1ccc(Cl)cc1)C(=O)Nc1cccnc1 | -10.2
83 | Cc1ccc(S(=O)(=O)N2CCN(C(=O)COC(=O)CCOc3ccc(C(C)(C)C)cc3)CC2)cc1 | 4.89
84 | Cc1nc2nc(COc3ccccc3)[nH]n2c(=O)c1Cl | 11
85 | O=C(Nc1ccc(N2CCOCC2)cc1)c1cccnc1 | 11
86 | Cc1ccc(C(=O)c2coc3ccc(O)c(Cl)c23)cc1 | -4.28
